The values that follow come from publication PMC10990147.

By UniProt entry, the sequences of proteins in these tests, tags left out.
UniProt P06224: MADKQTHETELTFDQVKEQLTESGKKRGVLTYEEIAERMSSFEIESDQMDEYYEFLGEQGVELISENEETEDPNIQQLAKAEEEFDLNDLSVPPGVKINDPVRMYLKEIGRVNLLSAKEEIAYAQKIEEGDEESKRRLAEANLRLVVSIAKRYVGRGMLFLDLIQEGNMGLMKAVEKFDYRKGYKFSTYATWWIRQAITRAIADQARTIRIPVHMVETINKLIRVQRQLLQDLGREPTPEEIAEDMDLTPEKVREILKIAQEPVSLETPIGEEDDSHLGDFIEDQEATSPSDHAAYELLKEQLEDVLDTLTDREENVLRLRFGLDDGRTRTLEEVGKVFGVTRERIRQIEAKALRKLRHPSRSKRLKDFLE

Experiment [1] addresses T1, DivIVA-FLAG (wild-type DivIVA with a C-terminally appended FLAG tag) (Bacillus subtilis) (UniProt P71021).
T1 sequence: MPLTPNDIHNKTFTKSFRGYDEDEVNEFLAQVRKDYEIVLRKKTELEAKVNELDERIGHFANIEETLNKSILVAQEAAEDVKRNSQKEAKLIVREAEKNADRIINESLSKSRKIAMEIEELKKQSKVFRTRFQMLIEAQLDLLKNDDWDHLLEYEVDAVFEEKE
The experiment can be described thus: co-IP.

In experiment [2] the target is T2, DivIVA^R94N-FLAG (Bacillus subtilis) (UniProt P71021).
T2 sequence: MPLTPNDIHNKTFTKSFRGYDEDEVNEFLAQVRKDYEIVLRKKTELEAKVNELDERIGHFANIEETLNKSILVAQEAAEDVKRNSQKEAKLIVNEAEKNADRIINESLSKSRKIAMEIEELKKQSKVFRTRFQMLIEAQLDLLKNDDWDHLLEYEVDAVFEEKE
Description: co-IP.

Experiment [3] deals with T3, DivIVA (wild type) fused to an adenylate cyclase subunit (bacterial two-hybrid fusion) (Bacillus subtilis) (UniProt P71021).
T3 sequence: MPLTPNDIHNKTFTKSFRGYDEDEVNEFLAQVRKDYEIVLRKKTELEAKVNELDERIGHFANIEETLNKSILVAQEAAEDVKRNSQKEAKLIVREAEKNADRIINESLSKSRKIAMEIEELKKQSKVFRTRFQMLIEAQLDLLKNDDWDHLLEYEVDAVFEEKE
Description: two-hybrid.

Experiment [4] addresses T4, DivIVA R94N fused to an adenylate cyclase subunit (bacterial two-hybrid fusion) (Bacillus subtilis) (UniProt P71021).
T4 sequence: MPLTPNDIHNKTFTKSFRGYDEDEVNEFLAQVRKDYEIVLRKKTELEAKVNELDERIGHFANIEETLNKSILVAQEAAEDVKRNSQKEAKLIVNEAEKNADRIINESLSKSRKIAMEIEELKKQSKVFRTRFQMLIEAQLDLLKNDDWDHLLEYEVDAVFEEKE
Description: two-hybrid.

Results are given in words; binding and its absence hold for the method and conditions named. For some assays here: In cells and extracts the contact can be indirect. Some results given as binding are weak or reduced against the parent protein; the word gives no strength. Where a sequence is shown, tags or fusion partners need not be part of it.

Consider SigA (from UniProt P06224 1-371), for which the binding result in experiment [1] and in experiment [2] was “no binding” each time.

B1: SpoIIE fused to an adenylate cyclase subunit (bacterial two-hybrid fusion) (enzyme, UniProt P37475 1-827)
chain: MEKAERRVNGPMAGQALEKLQSFFNRGTKLVTHHLHSLFFYKGFIYVVIGFLLGRAFILSEVLPFALPFFGAMLLIRRDKAFYAVLAVLAGALTISPKHSLLILAALLAFFVFSKVAAFITDDRVKALPIVVFFSMAAARAGFVYAQNGVFTTYDYVMAIVEAGLSFILTLIFLQSLPIFTVKKVKQSLKIEEIICFMILIASVLTGLAGLSYQGMQAEHILARYVVLSFSFIGGASIGCTVGVVTGLILGLANIGNLYQMSLLAFSGLLGGLLKEGKKAGAAIGLIVGSLLISLYGEGSAGLMTTLYESLIAVCLFLLTPQSITRKVARYIPGTVEHLQEQQQYARKIRDVTAQKVDQFSNVFHALSESFATFYQASDEQTDDSEVDLFLSKITEHSCQTCYKKNRCWVQNFDKTYDLMKQVMLETEEKEYASNRRLKKEFQQYCSKSKQVEELIEDELAHHHAHLTLKKKVQDSRRLVAEQLLGVSEVMADFSREIKREREQHFLQEEQIIEALQHFGIEIQHVEIYSLEQGNIDIEMTIPFSGHGESEKIIAPMLSDILEEQILVKAEQHSPHPNGYSHVAFGSTKSYRVSTGAAHAAKGGGLVSGDSYSMMELGARKYAAAISDGMGNGARAHFESNETIKLLEKILESGIDEKIAIKTINSILSLRTTDEIYSTLDLSIIDLQDASCKFLKVGSTPSFIKRGDQVMKVQASNLPIGIINEFDVEVVSEQLKAGDLLIMMSDGIFEGPKHVENHDLWMKRKMKGLKTNDPQEIADLLMEEVIRTRSGQIEDDMTVVVVRIDHNTPKWASIPVPAIFQNKQEIS
With B1, the binding result in experiment [3] and in experiment [4] was “binds” each time.

B2: SpoIIE-GFP (enzyme, UniProt P37475 1-827)
chain: MEKAERRVNGPMAGQALEKLQSFFNRGTKLVTHHLHSLFFYKGFIYVVIGFLLGRAFILSEVLPFALPFFGAMLLIRRDKAFYAVLAVLAGALTISPKHSLLILAALLAFFVFSKVAAFITDDRVKALPIVVFFSMAAARAGFVYAQNGVFTTYDYVMAIVEAGLSFILTLIFLQSLPIFTVKKVKQSLKIEEIICFMILIASVLTGLAGLSYQGMQAEHILARYVVLSFSFIGGASIGCTVGVVTGLILGLANIGNLYQMSLLAFSGLLGGLLKEGKKAGAAIGLIVGSLLISLYGEGSAGLMTTLYESLIAVCLFLLTPQSITRKVARYIPGTVEHLQEQQQYARKIRDVTAQKVDQFSNVFHALSESFATFYQASDEQTDDSEVDLFLSKITEHSCQTCYKKNRCWVQNFDKTYDLMKQVMLETEEKEYASNRRLKKEFQQYCSKSKQVEELIEDELAHHHAHLTLKKKVQDSRRLVAEQLLGVSEVMADFSREIKREREQHFLQEEQIIEALQHFGIEIQHVEIYSLEQGNIDIEMTIPFSGHGESEKIIAPMLSDILEEQILVKAEQHSPHPNGYSHVAFGSTKSYRVSTGAAHAAKGGGLVSGDSYSMMELGARKYAAAISDGMGNGARAHFESNETIKLLEKILESGIDEKIAIKTINSILSLRTTDEIYSTLDLSIIDLQDASCKFLKVGSTPSFIKRGDQVMKVQASNLPIGIINEFDVEVVSEQLKAGDLLIMMSDGIFEGPKHVENHDLWMKRKMKGLKTNDPQEIADLLMEEVIRTRSGQIEDDMTVVVVRIDHNTPKWASIPVPAIFQNKQEIS
B2: the binding entry in experiment [1] and in experiment [2] was “binds” throughout.

B3: DivIVA (wild type) fused to an adenylate cyclase subunit (bacterial two-hybrid fusion) (protein, UniProt P71021 1-164)
chain: MPLTPNDIHNKTFTKSFRGYDEDEVNEFLAQVRKDYEIVLRKKTELEAKVNELDERIGHFANIEETLNKSILVAQEAAEDVKRNSQKEAKLIVREAEKNADRIINESLSKSRKIAMEIEELKKQSKVFRTRFQMLIEAQLDLLKNDDWDHLLEYEVDAVFEEKE
Consider B3, for which the binding result in experiment [3] is on record as “binds”.

B4: DivIVA R94N fused to an adenylate cyclase subunit (bacterial two-hybrid fusion) (protein, UniProt P71021 1-164)
chain: MPLTPNDIHNKTFTKSFRGYDEDEVNEFLAQVRKDYEIVLRKKTELEAKVNELDERIGHFANIEETLNKSILVAQEAAEDVKRNSQKEAKLIVNEAEKNADRIINESLSKSRKIAMEIEELKKQSKVFRTRFQMLIEAQLDLLKNDDWDHLLEYEVDAVFEEKE
As for B4, in experiment [3], the binding result is on record as “binds”.
